Source: PubChem BioAssay AID588855 (National Center for Advancing Translational Sciences (NCATS), 2011)
Several values for one entry are separate records, joined by “and”; a condition that tells them apart may be missing. Identical values can stand only once. Screen size: about 410,000 compounds; about 5,000 (1.2%) were called active. Inconclusive means that the source gave no clear call. Such entries were picked first, then a sample of the others. Calls come from the whole dose curve; as a rule, active = well fitted inhibition curve with a large enough effect; inconclusive = small, poorly fitted or top-dose-only effect; inactive = no such curve, though single readings can be large or run the other way. Potencies of inconclusive entries are doubtful fits and often do not repeat.

assay: qHTS for Inhibitors of TGF-b; conditions: HepG2 CAGA-GFP TGF-b/SMAD3 reporter, GFP fluorescence, 18 h, TGF-beta stimulated, 500 pg/mL final; series mostly up to 46.1 µM; activity, negative = inhibition: at the top concentration; note: nearly all actives have a fitted effect of over 65% in size
How it was run: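 First, reporter cells (HEPG2 CAGA-GFP) rested 2 h at 37 degrees C. Next, compounds were pinned in and TGF-beta added to 500 pg/mL final. After 18 h, GFP was imaged per cell and summed per well.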
% is set by controls: 0 for no effect and ±100 for the full control effect; potency is the fitted concentration of half-maximal effect; tags give direction and shape of the fitted curve.

SMILES	Potency	activity, negative = inhibition
Cc1ccc(CN2[C@@H](Cc3ccccc3)C(=O)CS2(=O)=O)cc1	inconclusive: 15.8 µM [inhibitor, single point]	
Oc1[nH]c2c(Cl)cc(Cl)cc2c1N=NC(=S)NCC1CCCO1 (stereo unspecified)	inconclusive: 25.1 µM [inhibitor, single point]	
Cc1ccc(C)c(NC(=S)NC(NC(=O)Cc2cccc3ccccc23)C(Cl)(Cl)Cl)c1 (stereo unspecified)	active: 3.55 µM	
O=C(Nc1ccc(O)c(-c2nc3ccccc3s2)c1)c1cccs1	inconclusive: 5.62 µM [inhibitor, single point]	
NC(=O)c1ccc(-c2noc(-c3ccccc3F)n2)cc1	inconclusive: 6.31 µM [inhibitor, partial curve, poor fit]	
CCCSc1nc(O)c(C(c2ccc(OC)c(O)c2)c2c(O)nc(SCCC)n(C)c2=O)c(=O)n1C	inconclusive: 5.62 µM [inhibitor, single point]	
COc1ccc(NS(=O)(=O)c2cccc(C(=O)OCC(=O)N3CCN(c4ccc(OC)cc4)CC3)c2)cc1	inconclusive: 7.94 µM [inhibitor, partial curve]	
CN(C)C1=NC[C@H](Cc2ccccc2)N1CCCC1CCCCC1	inconclusive: 35.5 µM [inhibitor, single point]	
Cc1onc(-c2ccccc2)c1C(=O)Nc1cccc(S(=O)(=O)N2CCCCC2)c1		inactive: -7.92%
C[C@H]1[C@H](C)CC[C@]2(C(=O)O)CC[C@]3(C)C(=CC[C@@H]4[C@@]5(C)C[C@@H](O)[C@H](O)C(C)(C)[C@@H]5CC[C@]43C)[C@H]12	inconclusive: 35.5 µM [inhibitor, single point]	
CC(C)CN1CCc2nc(Nc3ccc(F)cc3F)ncc2C1		inactive: 8.98%
CCC(C(=O)OCC(=O)Nc1c(Cl)cc(Cl)cc1Cl)c1ccccc1 (stereo unspecified)	inconclusive: 12.6 µM [inhibitor, single point]	
Cc1ccc(OCc2nnc(SCc3nc4ccccc4[nH]3)n2Cc2ccco2)cc1		inactive: -11.5%
OC1(c2cccs2)CN(c2ccc(Br)cc2)C2=[N+]1CCCS2 (stereo unspecified)	inconclusive: 14.1 µM [inhibitor, single point]	
COc1ccc(CNC(=O)CN(C(=O)c2csnn2)c2cccc(C(C)=O)c2)cc1		inactive: 21.2%
CC(C)(C)OC(=O)N1CCc2onc(-c3ccc([N+](=O)[O-])cc3)c2C1=O	inconclusive: 35.5 µM [inhibitor, single point]	
Cc1ccc(C(=O)c2oc3ccc(Cl)cc3c2NC(=O)CN2CCN(C)CC2)cc1	inconclusive: 35.5 µM [inhibitor, single point]	
C=CCNC(=O)/C(C#N)=C/c1cc(Br)ccc1OC		inactive: -25.5%
O=C1CN(C(=O)/C=C/c2cccc(Cl)c2)c2ccccc2N1		inactive: -1.07%
NS(=O)(=O)c1ccc(N=Nc2c(O)ccc3ccccc23)cc1	inconclusive: 3.16 µM [inhibitor, partial curve, poor fit]	
Cc1ccc(-c2onc(C)c2C)cc1S(=O)(=O)N1CCOc2ccc(Cl)cc21	inconclusive: 10 µM [inhibitor, partial curve]	
O=C(NC1CCCCC1)C(c1ccc2ncccc2c1)N(Cc1ccccc1)C(=O)c1ccc2c(c1)OCCO2 (stereo unspecified)	inconclusive: 35.5 µM [inhibitor, partial curve, poor fit]	

SMILES	Potency	activity, negative = inhibition
Cc1ccc(Nc2nc(N)nc(COC(=O)c3ccc(Br)o3)n2)cc1	inconclusive: 0.447 µM [inhibitor, full curve, poor fit]	
CC(=O)Sc1nc(-c2ccccc2)[nH]c1S(=O)(=O)c1ccc(C)cc1		inactive: 0%
O=C1c2ccccc2C(=O)C1c1ccc2ccccc2n1	inactive	
COc1cc(CNCc2ccncc2)cc(Br)c1OCc1ccccc1F		inactive: 21.5%
COc1cccc(NC(=O)[C@@H](NC(=O)N2CCn3c2nc2ccccc23)C(C)C)c1	inconclusive: 35.5 µM [inhibitor, partial curve, poor fit]	
CC(C)CC(NS(=O)(=O)c1ccc2c(c1)oc(=O)n2C)C(=O)NC1CCCc2ccccc21 (stereo unspecified)	inconclusive: 5.62 µM [inhibitor, single point]	
C=C(C(=O)c1ccccc1)C(C)C(=C)C(=O)c1ccccc1	inconclusive: 3.16 µM [inhibitor, partial curve, poor fit]	
CC(=O)CSc1ccc(-c2nc3cc(C)c(C)cc3[nH]2)cn1	inconclusive: 11.2 µM [inhibitor, single point]	
O=S(=O)(NCC(c1cccnc1)N1CCN(c2ccc(F)cc2)CC1)c1ccc(F)cc1 (stereo unspecified)		inactive: -7.61%
CCc1cc2c(=O)c(-c3cnn(-c4ccccc4)c3)c(C)oc2cc1OCC(=O)Nc1cccc(C)c1		inactive: 6.43%
CCCCn1c(N)c(N(CC(C)C)C(=O)c2cc(-c3ccc(OC)cc3)nc3ccccc23)c(=O)[nH]c1=O	inconclusive: 35.5 µM [inhibitor, single point]	
Cc1ccc(N/C(C(Cl)=C(Cl)Cl)=C(/Cl)[N+](=O)[O-])c(C)c1	inconclusive: 17.8 µM [inhibitor, single point]	
CC(=NNC(=S)N1CCN(c2ccccn2)CC1)c1nccs1	inconclusive: 0.355 µM [inhibitor, full curve, poor fit]	
CCN(CC)C(=O)c1ccc2c(=O)n(Cc3ccc4c(c3)OCO4)c(=S)[nH]c2c1	inconclusive: 20 µM [inhibitor, single point]	
COc1cccc(-c2noc(CCC(=O)N3CCN(c4cc(C)ccc4C)CC3)n2)c1	inconclusive: 35.5 µM [inhibitor, single point]	
COc1ccccc1C1CCN(c2ccc(CO)cc2[N+](=O)[O-])CC1	inconclusive: 35.5 µM [inhibitor, single point]	
COc1ccc(NC(=O)c2cc(-c3ccc(F)cc3C)n[nH]2)cc1OC		inactive: 1.59%
O=[N+]([O-])c1cc(S(=O)(=O)NC2=NCCCCC2)ccc1NCC1CCCCC1	inconclusive: 15.8 µM [inhibitor, partial curve, poor fit]	
Fc1cccc(-c2nn[nH]n2)c1	inconclusive: 3.16 µM [inhibitor, single point]	
CCN(CC)CC(=O)c1ccc(-c2ccccc2)cc1	inconclusive: 35.5 µM [inhibitor, single point]	
O=C(Nc1ccccc1C(F)(F)F)C1CCN(S(=O)(=O)Cc2ccccc2)CC1		inactive: -1.22%
Cc1ccc(C(=O)N2CCCCC2)cc1NC(=O)c1nsc2ccccc12	inconclusive: 35.5 µM [inhibitor, single point]	

SMILES	Potency	activity, negative = inhibition
Cc1c(CCNC(=O)c2ccc(Br)o2)sc2nc(-c3ccc(Cl)cc3)nn12	active: 11.2 µM	
COc1ccc(-c2ccc(C(=O)NCc3ccccc3)c3occc23)c(C)c1	inconclusive: 20 µM [inhibitor, single point]	
CC1CN(S(=O)(=O)c2cccc(C(=O)Nc3ccccc3N3CCCC3)c2)CC(C)O1 (stereo unspecified)		inactive: -18.5%
COc1ccc(N=Cc2sc(O)c3ccccc23)cc1		inactive: 87.1%
COC(=O)/C(=C(/F)Sc1cc(C)c(O)c(C)c1)C(F)(F)F	inconclusive: 15.8 µM [inhibitor, single point]	
COC(=O)CSc1nc(COc2ccccc2)nc2ccccc12		inactive: -5.97%
CC(O)(c1ccccc1)c1nc(-c2ccc(F)c(Cl)c2)cs1 (stereo unspecified)	inconclusive: 35.5 µM [inhibitor, single point]	
Cc1nc(C(F)(F)F)ccc1C(=O)Nc1ccccc1N1CCOCC1		inactive: 2.29%
COc1ccc(NS(=O)(=O)c2ccc(N/N=C(\C)c3ccncc3)c([N+](=O)[O-])c2)cc1	inconclusive: 2.51 µM [inhibitor, partial curve, poor fit]	
O=C(N/N=C/c1ccc([N+](=O)[O-])s1)C(O)c1ccccc1 (stereo unspecified)	active: 7.94 µM	
CC(C)C[C@@H](CSc1ccccc1)N1CCN(CCc2ccccc2)CCC1=O	inconclusive: 35.5 µM [inhibitor, single point] and inconclusive: 5.01 µM [inhibitor, full curve, poor fit]	
O=C(CSc1ccsc1[N+](=O)[O-])NC1CCCC1		inactive: 10.3%
COc1ccc(NC(=O)c2cc3ccccc3o2)cc1S(=O)(=O)N1CCCCC1	inconclusive: 35.5 µM [inhibitor, single point]	
O=C(Nc1ccc(NC(=O)c2cc3ccccc3o2)cc1)c1ccco1		inactive: 22.7%
CCOc1ccccc1NC(=O)C(NCC1(N2CCCCC2)CCCCC1)c1ccccc1 (stereo unspecified)	inconclusive: 35.5 µM [inhibitor, single point]	
CCCCCCCCNC(=O)CCNC(=O)c1ccc(C(C)(C)C)cc1	inconclusive: 35.5 µM [inhibitor, single point]	
CCC[C@@H](CN1CCC[C@H]1CN1C(N)=NC[C@@H]1Cc1ccccc1)N1C[C@@H]([C@H](C)CC)N(CCCC2CCCC2)C1=N	inconclusive: 22.4 µM [inhibitor, single point]	
CC(NC(=O)COC(=O)CNC(=O)c1ccccc1Cl)C1CC2CCC1C2 (stereo unspecified)		inactive: 0.422%
COC(=O)C(C(=O)N1CCN(C)CC1)C1CCCCCC1 (stereo unspecified)	inconclusive: 5.62 µM [inhibitor, single point]	
Cc1cc(S(=O)(=O)Nc2ccc(C(=O)N3CCN(c4ccccc4O)CC3)cc2)ccc1F	inconclusive: 35.5 µM [inhibitor, single point]	
CCOc1c(Cl)cc(/C=N/NC(N)=S)cc1OC	active: 14.1 µM	
O=C(c1ccccc1)c1sc(Nc2ccc3c(c2)OCO3)nc1-c1ccccc1	inconclusive: 35.5 µM [inhibitor, single point]	
